Hit rate of the full screen: of about 52,000 compounds, about 4,300 (8.3%) were called active. No stated cut-off is given here; in the data, active means survival mostly below about 52% (no sharp cut-off); inactive means mostly above about 56%. This is one part of the list.

For this experiment, the system named is DeltatarO mutant. Nature of the experiment: S. aureus survival, RN4220 and DeltatarO strains – OD600, teichoic acid synthesis inhibitors, primary screen (AID 463173). Particulars: S. aureus RN4220 wild type/DeltatarO growth, OD600, 18 h, active compounds read low, screened at 18.75 µg/mL (by protocol).
Take `CCOc1nc(NC(C)C)nc(NC(C)C)n1`: the survival is inactive: 76%.
Regarding `Cc1ccc(-c2[nH]c(-c3ccccc3)nc2SCC(=O)NCC2CCCO2)cc1` (configuration not stated), the survival is inactive: 74%.
`COc1cccc(CNC(=O)C(=O)Nc2ccc3nc4n(c(=O)c3c2)CCCCC4)c1`: the survival was inactive: 97%.
Turning to `Cc1ccc(N2CCN(C(=O)c3cc(S(=O)(=O)N4CCCCC4)c[nH]3)CC2)c(C)c1`, the survival was inactive: 102%.
With `Cc1ccc(/C=N/NC(=O)C2=NNC(=O)C2C)o1` (configuration not stated), the survival was inactive: 87%.
On to `Cc1ccc(-c2cc(C(=O)Oc3ccccc3Cl)no2)cc1C`, for which the survival was active: -1%.
In the case of `CCN(CC)C(=O)CSc1nnc(-c2ccco2)n1CCCOC`, the survival is inactive: 89%.
Consider `Cc1ccc2nc(Cl)c3cc(C(=O)NC4CCC(C)CC4)sc3c2c1` (configuration not stated), for which the survival was inactive: 57%.
In the case of `Cc1ccc2c(c1C)NC(=O)CC2c1ccc(Cl)cc1Cl` (configuration not stated), the survival was active: 4%.
As to `Cn1c(C(O)c2ccccc2)n[nH]c1=S` (configuration not stated), the survival was inactive: 93%.
Next, `CCc1ccc(OCC(=O)Nc2ccc(-c3nc4ncccc4o3)cc2)cc1`: inactive: 65%; `Cc1ccc2c(c1)nnn2C1CCN(CC(=O)N2c3ccccc3CC2C)CC1` (configuration not stated): inactive: 95%.
With `O=C(CC1N=C2c3ccccc3N=C(SCc3cccc(F)c3)N2C1=O)NCc1ccc2c(c1)OCO2` (configuration not stated), the survival was inactive: 97%.
In the case of `Cc1ccc(OCC(=O)Nc2cccc(C(=O)OCc3cc(=O)n4nc(C)sc4n3)c2)cc1`, the survival is inactive: 78%.
Next, `O=C(CN1CCC(n2nnc3cc(F)ccc32)CC1)N1CCCc2ccccc21`: inactive: 73%; `O=C(O)c1ccc(NC(=O)c2cn(-c3ccccc3)nc2-c2ccc(Br)cc2)cc1`: active: 24%; `CC(=O)c1ccc(N2CCN(c3ncnc4onc(C)c34)CC2)cc1`: inactive: 55%.
Take `CCN(CC)C(=O)Cn1cc(/C=C(\C#N)C(=O)N2CCN(c3ccccc3)CC2)c2ccccc21`: the survival was inactive: 78%.
As to `CC1CCC(NC(=O)c2ccc(CS(=O)(=O)c3c(Cl)cccc3Cl)o2)CC1` (configuration not stated), the survival is inactive: 69%.
Then `COc1ccc(OCC(=O)Nc2ccccc2C(=O)OCc2cc(=O)n3nc(C)sc3n2)cc1`, with inactive: 95%; and `COc1cc(-c2nc(-c3cccc(Cl)c3)c(-c3ccccc3)[nH]2)cc(OC)c1OC`, with inactive: 126%; and `COC(=O)c1ccc(CSc2nc3c(c(=O)[nH]2)CCC3)cc1`, with inactive: 85%.
Regarding `O=C(OC(C(=O)NCc1cccs1)c1ccccn1)c1cccs1` (configuration not stated), the survival is inactive: 103%.
Turning to `O=C(NCCN1CCCCC1)c1ccc(Cn2c(SCc3cccc(F)c3)nc3cccnc32)cc1`, the survival is inactive: 103%.
`Cc1cccc(OCC(=O)N(Cc2ccccc2)c2ccccn2)c1`: the survival is inactive: 58%.
For the molecule `COc1ccc(CCNC(=O)c2ccc3c(Cl)c4c(nc3c2)CCCC4)c(OC)c1`, the survival is inactive: 86%.
Consider `CS(=O)(=O)N1CCCc2cc(C(=O)Nc3cccc(C(F)(F)F)c3)ccc21`, for which the survival was inactive: 62%.
Next, `COc1ccc(C2C(=O)N(C3CCCCCC3)CC(=O)N2CCC2=CCCCC2)cc1` (configuration not stated): inactive: 54%.
On to `CCOC(=O)c1ccc2c(c1)N(Cc1ccccc1)C(=O)c1ccccc1S2`, for which the survival is inactive: 73%.
Take `O=C(CCn1nnc(-c2cccs2)n1)NC1CCCCC1`: the survival was inactive: 99%.
For the molecule `CC(C)CCn1c(=O)c2sccc2n2c(CCCC(=O)NC3CCC(C)CC3)nnc12` (configuration not stated), the survival is inactive: 84%.
On to `O=C(Nc1cc(Cl)cc(Cl)c1)c1ccc(F)c(S(=O)(=O)NC2CCCCC2)c1`, for which the survival was inactive: 74%.
Regarding `[O-][n+]1c2c(nn1-c1ccccc1)/C(=N\O)CCC2`, the survival was inactive: 56%.
As for `CCCCc1ccc(NC(=O)CSc2nc3ccccc3nc2N2CCOCC2)cc1`, the survival was active: 30%.
As for `COc1cccc(-c2cc(C(=O)Nc3ccn(Cc4ccc(C)cc4)n3)no2)c1`, the survival was active: 33%.
As to `COc1ccc(CCNC(=O)CCSCc2ccccc2Cl)cc1OC`, the survival was inactive: 76%.
For `O=C(NCCS(=O)(=O)N1CCN(c2ccc(F)cc2)CC1)C1CC(=O)N(c2ccc(F)cc2)C1` (configuration not stated), the survival is inactive: 101%.
In the case of `CCc1ccccc1NC(=O)Cn1c(=O)n(Cc2ccco2)c(=O)c2sc3ccccc3c21`, the survival was inactive: 62%.
Regarding `Cc1ccc(NC(=O)Cn2c(=O)n(Cc3ccc4c(c3)OCO4)c(=O)c3ccccc32)c(C)c1`, the survival is inactive: 95%.
Consider `Cc1ccc(C)c(N2CCN(S(=O)(=O)c3cnc(N)nc3)CC2)c1`, for which the survival was inactive: 86%.
On to `Cc1ccc2nc(N3CCN(c4cccc(C)c4C)CC3)c3nncn3c2c1`, for which the survival is active: 39%.
For `Nc1nonc1C(=O)NCCNCc1ccc(Cl)c(Cl)c1`, the survival was inactive: 68%.
Next, `COc1ccccc1NC(=O)Cn1c(=O)n(Cc2ccccc2)c(=O)c2c3c(sc21)CN(C(C)=O)CC3`: inactive: 92%.
Next, `CCn1ccc2c(OCC(=O)NCc3ccc(C)cc3)cccc2c1=O`: inactive: 81%; `Cc1oc(C)c(C(N)=O)c1C(N)=O`: inactive: 100%; `Cc1cc(C)nc(-n2nc(C)c3c2NC(=O)CC3c2cc(F)ccc2F)n1` (configuration not stated): inactive: 87%.
Then `CCn1nc(C)c(CCN(C)C(=O)Nc2cc(C)cc(C)c2)c1C`, with inactive: 83%; and `Cc1ccc(CSc2nc3ccc(NC(=O)COc4ccc(F)cc4)cc3s2)cc1`, with inactive: 89%; and `O=C(Nc1cnc(N2CCC(N3CCCCC3)CC2)c(C(=O)O)c1)c1ccc(Br)cc1`, with inactive: 102%.
Turning to `CCc1ccc(CNC(=O)Cn2c(-c3cccs3)cc3cc(F)ccc32)cc1`, the survival is inactive: 119%.
As to `COc1ccc(N2CCN(C(C)C(=O)N3CCCC3)CC2)cc1` (configuration not stated), the survival was inactive: 85%.
Turning to `COc1ccc(-n2c(=O)c3c(c4cc(OC)ccc4n3C)n(Cc3ccc(F)cc3Cl)c2=O)cc1`, the survival was inactive: 89%.
Next, `Cc1cc(Cl)ccc1OCC(=O)Nc1c(C(=O)c2ccccc2)oc2ccccc12`: inactive: 89%; `O=C(CSc1ncc(-c2ccccc2)[nH]1)Nc1cccc(C(F)(F)F)c1`: active: 12%.
With `COc1cc(Cn2c(=O)sc3ccccc32)ccc1OCCC(C)C`, the survival is active: -2%.
Turning to `CC(C)c1ccc2c(c1)-c1ccccc1S(=O)(=O)N2CC(=O)N1CCCCC1`, the survival is inactive: 85%.
`Cc1ccccc1-c1nc(CS(=O)(=O)CC(=O)Nc2cc(Cl)cc(Cl)c2)c(C)o1`: the survival was inactive: 109%.
For `Cn1c(=O)cc(SCC(=O)N2CCN(c3ccccc3F)CC2)c2cc(Cl)ccc21`, the survival is inactive: 70%.
Turning to `CC(C)Sc1ncc(Cl)c(C(=O)Nc2ccc(S(=O)(=O)Nc3ncccn3)cc2)n1`, the survival was inactive: 50%.
In the case of `COc1ccc(CNC(=O)CSc2n[nH]c(-c3ccc(OC)cc3)n2)cc1`, the survival is active: -5%.
Then `CCNC(=O)C1CCCN1C(=O)OCC(C)C` (configuration not stated), with inactive: 97%; and `Cc1ccc(NC(=O)c2cc3c([nH]c2=O)CC(C)(C)CC3=O)c(C)c1`, with inactive: 93%; and `COc1ccccc1NC(=O)CCS(=O)(=O)c1cc2c3c(c1)CCN3C(=O)CC2`, with inactive: 99%.
For `O=C(O)CN1CCCC1=O`, the survival was inactive: 96%.
Next, `CCC1CCCCN1C(=O)c1nn(-c2ccc(OC)cc2)c(=O)c2c1c1ccccc1n2C` (configuration not stated): inactive: 110%; `O=C(NCc1ccccc1Cl)c1cc(=O)[nH]c2ccc(S(=O)(=O)N3CCCCC3)cc12`: inactive: 54%; `Cc1ccccc1CCNC(=O)C1CCN(c2nc3ccccc3nc2C(F)(F)F)CC1`: inactive: 72%.
With `CCOc1ccc(C(=O)NCCn2cc(SCC(=O)Nc3ccccc3)c3ccccc32)cc1`, the survival was inactive: 71%.
As to `COC(=O)c1cc(NC(=O)c2sc3ncn(Cc4cccc(F)c4)c(=O)c3c2C)cc(C(=O)OC)c1`, the survival is inactive: 92%.
On to `COc1cc(CN(C(=O)c2cccc(C)c2)c2ccccn2)cc(OC)c1OC`, for which the survival is inactive: 79%.
Take `Cc1ccc(-n2c(SCC(=O)NCc3ccccc3)nc3c([nH]c4ccccc43)c2=O)cc1`: the survival is inactive: 63%.
As for `O=C(Cn1nc(C(F)(F)F)c2c1CCC2)Nc1ccc(Cl)cc1`, the survival was inactive: 54%.
Turning to `Cc1cc(C)c2c(CC(=O)Nc3ccc(S(=O)(=O)Nc4ncccn4)cc3)coc2c1`, the survival is inactive: 83%.
Take `CCN(Cc1ccccc1)C(=O)CN1C(=O)COc2ccc(S(=O)(=O)N(CC)CC)cc21`: the survival is inactive: 80%.
Next, `COC(=O)c1ccc[nH]c1=S`: inactive: 100%; `CC1=C(C(=O)Nc2ccc(Cl)cc2)C(C(C)C)n2nc(SCc3ccc(Cl)cc3)nc2N1` (configuration not stated): inactive: 65%.
Consider `O=C(NCC1CCN(Cc2cccc(Cl)c2)CC1)c1cc2ccc3cccnc3c2[nH]1`, for which the survival was inactive: 75%.
In the case of `CC(C)C(=O)Nc1ccc(NC(=O)c2ccccc2)nc1`, the survival was inactive: 87%.
Turning to `O=C(N1CCCCC1)N1CCC(c2nc3ccccc3[nH]2)CC1`, the survival is inactive: 95%.
As for `Cc1ccc(OC(=O)CSc2nnc(-c3cccs3)o2)cc1C`, the survival is inactive: 68%.
In the case of `O=c1nc(N2CCOCC2)nc(N2CCOCC2)[nH]1`, the survival was inactive: 100%.
As to `CCn1cc(C(=O)NCCc2ccc(OC)c(OC)c2)c(=O)c2cc(S(=O)(=O)N3CCC(C)CC3)ccc21`, the survival was inactive: 86%.
Then `CCOc1ccc(-n2c(SCC(=O)N3CCCCCC3)nc3c([nH]c4ccccc43)c2=O)cc1`, with inactive: 106%; and `CCOc1ccc(N(CC(=O)Nc2ccccc2CC)S(=O)(=O)c2c(C)[nH]c(=O)[nH]c2=O)cc1`, with inactive: 79%.
Take `Cc1ccc(NC(=O)c2sc3nc[nH]c(=O)c3c2C)cc1Cl`: the survival is inactive: 102%.
Next, `Clc1ccc2c(c1)CN(C1CCCCC1)CO2`: inactive: 98%; `CCOc1ccccc1NC(=O)Cn1c(=O)n(Cc2ccco2)c(=O)c2ccc(C(=O)NC3CCCC3)cc21`: inactive: 82%; `C/C(=N\O)C(=O)NCc1cccnc1`: inactive: 73%.
As for `N=C1SCC(=O)N1c1ccc(Cl)cc1`, the survival was inactive: 109%.
Then `COc1ccc(Cl)cc1NC(=O)Cn1nc(Cc2ccncc2)c2ccccc2c1=O`, with inactive: 62%.
Regarding `Cc1cc(F)ccc1NC1(c2ccccc2)C(=O)c2ccccc2C1=O`, the survival is inactive: 79%.
For the molecule `CCc1ccccc1NC(=O)C1CCN(C(=O)N2CC(C)Oc3ccc(Cl)cc32)CC1` (configuration not stated), the survival is active: 55%.

Values taken from PubChem BioAssay AID463173 (ICCB-Longwood Screening Facility, Harvard Medical School, 2010).
